Results: the RNAGym collection of RNA variant scans (doi:10.1093/nar/gkz1192)
Read counts are not given, so values of variants with three or more changes are uncertain.

B1: CPEB3 Ribozyme (parent)
chain: UAACAGGGGGCCACAGCAGAAGCGUUCACGUCGCAGCCCCUGUCAGAUUCUGGUGAAUCUGCGAAUUCUGCUGUAUAUCUC

Variants of: B1
Assay: self-cleavage, relative activity (ratio to wild type); higher = more cleavage; in vitro, sequencing
Outline: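 After error-prone PCR and barcoding, CPEB3 ribozyme mutant libraries were transcribed with T7 RNA polymerase at 37°C for 5 hours, then given 15 min with DNase I before an EDTA stop, and they cleaved during both steps. Reverse transcription with template switching preceded Illumina sequencing. Relative activity divides a variant's cleaved/total read fraction by the unmutated ribozyme's. At least 5 reads were required per variant, and three batches were averaged.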
In the case of UAACAGGGGGCCACAGCAGAAGCGUUCACGUCGCAGCCCCAGUCAGAUUCUGGUGAAUCUGCGAAUCCUGCUGUAUGUCUC, the self-cleavage is reported as 0.16.
For UAACAGGGGGCCACAGCAGAAGCGUUCACGUCGCAGCCCCAGUCAGAUUCUGGUGAAUCUGCGAAUUCCGCUGCAUAUCUC, the self-cleavage was 0.18.
With UAACAGGGGGCCACAGCAGAAGCGUUCACGUCGCAGCCCCAGUCAGAUUCUGGUGAAUCUGCGAAUUCUGCAGCAUGUCUC the self-cleavage was 0.14.
UAACAGGGGGCCACAGCAGAAGCGUUCACGUCGCAGCCCCAGUCAGAUUCUGGUGAAUCUGCGAAUUCUGCCGUAAAUCUC gave a self-cleavage of 0.1.
UAACAGGGGGCCACAGCAGAAGCGUUCACGUCGCAGCCCCAGUCAGAUUCUGGUGAAUCUGCGAAUUCUGCUGUAUACCCC showed a self-cleavage of 0.2.
In the case of UAACAGGGGGCCACAGCAGAAGCGUUCACGUCGCAGCCCCCGUCCGAUUCUGGUGGGUCUGCGAAUUCUGCUGUAUAUCUC, the self-cleavage is reported as 0.19.
Variant UAACAGGGGGCCACAGCAGAAGCGUUCACGUCGCAGCCCCCGUCGGAUUCUGGUUAAUCUGCGAAUUCUGCUGUAUAUCUC has a self-cleavage of 0.78.
In the case of UAACAGGGGGCCACAGCAGAAGCGUUCACGUCGCAGCCCCCGUCGGAUUCUGGUGAAUCUACGCAUUCUGCUGUAUAUCUC, the self-cleavage is reported as 0.18.
For UAACAGGGGGCCACAGCAGAAGCGUUCACGUCGCAGCCCCCGUCGGAACCUGGUGAAUCUGCGAAUUCUGCCGUAUGCCUC, the self-cleavage was 0.16.
UAACAGGGGGCCACAGCAGAAGCGUUCACGUCGCAGCCCCCGUCGGAGUCCGGUGAAUCUGCGAAUUCUGCUGUAUAUCUC showed a self-cleavage of 0.41.
UAACAGGGGGCCACAGCAGAAGCGUUCACGUCGCAGCCCCCGUCGGAUUCCGGUGAAUCUGCGAGUUCUGCUGUAUAUCUC showed a self-cleavage of 0.2.
For UAACAGGGGGCCACAGCAGAAGCGUUCACGUCGCAGCCCCCGUCGGAUUCUGGCGAAUCUGCGAAUUCUGCUGUAUAUCUC, the self-cleavage was 0.96.
In the case of UAACAGGGGGCCACAGCAGAAGCGUUCACGUCGCAGCCCCCGUCGGAUUCUGGUGAACCUGCGAGUUCUGCUGUAUAUCUC, the self-cleavage is reported as 0.16.
In the case of UAACAGGGGGCCACAGCAGAAGCGUUCACGUCGCAGCCCCCGUCGGAUUCUGGUGAAUCUGCGAAUACUGCUGUAUAUCUC, the self-cleavage is reported as 0.52.
Variant UAACAGGGGGCCACAGCAGAAGCGUUCACGUCGCAGCCCCCGUCGGAUUCUGGUGAAUCUGCGAAUUCUGCCGUAUAUCUC has a self-cleavage of 1.05.
Variant UAACAGGGGGCCACAGCAGAAGCGUUCACGUCGCAGCCCCCGUCUGGUUCUGGUGGAUCUGCGAAUUCUGCUGUAUAUCUC has a self-cleavage of 0.24.
UAACAGGGGGCCACAGCAGAAGCGUUCACGUCGCAGCCCCCGUCUGAUUCUGGUGAAUCUGCGAAUUCUACUGUAUGUCUC gave a self-cleavage of 0.32.
In the case of UAACAGGGGGCCACAGCAGAAGCGUUCACGUCGCAGCCCCCGUCUGAUCCUGGUGAAUCAGCGGAUUCUGCUGUAUAUCUC, the self-cleavage is reported as 0.14.
With UAACAGGGGGCCACAGCAGAAGCGUUCACGUCGCAGCCCCCGUCUGAUUCAGGUGAAUCUGCGAAUUCUGCCGUAUAUCUC the self-cleavage was 0.47.
For UAACAGGGGGCCACAGCAGAAGCGUUCACGUCGCAGCCCCCGUCUGAUUCCGGUGAAUCUGCGAAUUCUGCUGUAUAUCUC, the self-cleavage was 0.6.
In the case of UAACAGGGGGCCACAGCAGAAGCGUUCACGUCGCAGCCCCCGUCUGAUUCUGGUGAAUCCGCGAAUUCUGCUGUAUAUCUC, the self-cleavage is reported as 0.38.
With UAACAGGGGGCCACAGCAGAAGCGUUCACGUCGCAGCCCCCGUCUGAUUCUGGUGAAUCUGCGAAUUCCGCUGUAUAUCUC the self-cleavage was 0.27.
In the case of UAACAGGGGGCCACAGCAGAAGCGUUCACGUCGCAGCCCCCGUCUGAUUCUGGUGAAUCUGCGAAUUCUGCUGCAUAUCUC, the self-cleavage is reported as 0.72.
Variant UAACAGGGGGCCACAGCAGAAGCGUUCACGUCGCAGCCCCCGUCAGGUUCUGGUGGGUCUGCGAAUUCUGCUGUAUAUCUC has a self-cleavage of 0.47.
Work on UAACAGGGGGCCACAGCAGAAGCGUUCACGUCGCAGCCCCCGUCAGGUUCUGGUGAAUCUGCGGACUCUGCUGUAUAUCUC yielded a self-cleavage of 0.52.
Variant UAACAGGGGGCCACAGCAGAAGCGUUCACGUCGCAGCCCCCGUCAGGUUCUGGUGAAUCUGCGAAUUCUGCUGUAUUUCUC has a self-cleavage of 1.16.
Work on UAACAGGGGGCCACAGCAGAAGCGUUCACGUCGCAGCCCCCGUCAGGCUCUAGCGAAUCUGCGGAUUCUGCUGUAUAUCUC yielded a self-cleavage of 0.14.
Work on UAACAGGGGGCCACAGCAGAAGCGUUCACGUCGCAGCCCCCGUCAGGUACUGGUGGAUCUGCGAAUUCUGCUGAAUAUCUC yielded a self-cleavage of 0.48.
UAACAGGGGGCCACAGCAGAAGCGUUCACGUCGCAGCCCCCGUCAGGUUCGGGUGAAUCUGCGAAUUCAGCUGUAUACCUC showed a self-cleavage of 0.42.
For UAACAGGGGGCCACAGCAGAAGCGUUCACGUCGCAGCCCCCGUCAGGUUCUGGGGAAUCUGCGAAUUCUGCUGUAUAUCUC, the self-cleavage was 0.57.
UAACAGGGGGCCACAGCAGAAGCGUUCACGUCGCAGCCCCCGUCAGUUUCUGGUGGAUCUGCGAAUUCUGCUGUAUAUCUC gave a self-cleavage of 0.35.
UAACAGGGGGCCACAGCAGAAGCGUUCACGUCGCAGCCCCCGUCAGAUUCUGGUGGUUCUGCGAAUUCUGCUGUAUAUCUC showed a self-cleavage of 0.26.
In the case of UAACAGGGGGCCACAGCAGAAGCGUUCACGUCGCAGCCCCCGUCAGAUUCUGGUGGUUCUGCGAAUACUGCUGUAUAUCUC, the self-cleavage is reported as 0.15.
For UAACAGGGGGCCACAGCAGAAGCGUUCACGUCGCAGCCCCCGUCAGAUUCUGGUGGAUCUGCGGAUUCUGCUGAAUAUCUC, the self-cleavage was 1.04.
